The other results are listed elsewhere or left out.
B1: PhoQ; a variant is named by its letters at X, in order, P23837 (parent)
chain: MKKLLRLFFPLSLRVRFLLATAAVVLVLSLAYGMVALIGYSVSFDKTTFRLLRGESNLFYTLAKWENNKLHVELPENIDKQSPTMTLIYDENGQLLWAQRDVPWLMKMIQPDWLKSNGFHEIEADVNDTSLLLSGDHSIQQQLQEVREDDDDAEMTHSVAVNVYPATSRMPKLTIVVVDTIPVELKSSYMVWSWFIYVLSANLLLVIPLLWVAAWWSLRPIEALAKEVRELEEHNRELLNPATTRELTSLVRNLNRLLKSERERYDKYRTTLTDLTHSLKTPLXXLQXXLRSLRSEKMSVSDAEPVMLEQISRISQQIGYYLHRASMRGGTLLSRELHPVAPLLDNLTSALNKVYQRKGVNISLDISPEISFVGEQNDFVEVMGNVLDNACKYCLEFVEISARQTDEHLYIVVEDDGPGIPLSKREVIFDRGQRVDTLRPGQGVGLAVAREITEQYEGKIVAGESMLGGARMEVIFGRQHSAPKDE

Variants of: B1
Assay: enrichment ratio after two sorts for PhoP signalling (ratio (wild type AVST 3.29)); higher = more functional
Conditions: with PhoP (E. coli)

| Variant | enrichment ratio |
| --- | --- |
| PRTW | ≤ 0.25 |
| ITKP | ≤ 0.25 |
| DHVC | ≤ 0.25 |
| MHVS | ≤ 0.25 |
| KVNY | ≤ 0.25 |
| EQIQ | ≤ 0.25 |
| GPWF | ≤ 0.25 |
| VGVF | ≤ 0.25 |
| LNLQ | ≤ 0.25 |
| RGQL | ≤ 0.25 |
| WAFD | ≤ 0.25 |
| RKLA | ≤ 0.25 |
| GYKT | ≤ 0.25 |
| GDYT | ≤ 0.25 |
| MSQK | ≤ 0.25 |
| GTSQ | 5.69 |
| EGMH | ≤ 0.25 |
| PCFW | ≤ 0.25 |
| AKTI | 23.6 |
| PCYL | ≤ 0.25 |
| KAYF | ≤ 0.25 |
| VLFH | ≤ 0.25 |
| FMCK | ≤ 0.25 |
| VNCT | 1.24 |
| FELT | 6.15 |
| AACQ | ≤ 0.25 |

| Variant | enrichment ratio |
| --- | --- |
| PSGD | ≤ 0.25 |
| AYHP | ≤ 0.25 |
| MMPS | ≤ 0.25 |
| MADL | ≤ 0.25 |
| DQYR | ≤ 0.25 |
| PMDG | ≤ 0.25 |
| KKCP | ≤ 0.25 |
| MVGG | ≤ 0.25 |
| ECEF | ≤ 0.25 |
| TYWR | ≤ 0.25 |
| KEHA | ≤ 0.25 |
| WYLF | ≤ 0.25 |
| MYCA | ≤ 0.25 |
| VTWS | ≤ 0.25 |
| DKEH | ≤ 0.25 |
| PQYV | ≤ 0.25 |
| DMYH | ≤ 0.25 |
| YDNF | ≤ 0.25 |
| FKST | ≤ 0.25 |
| AFQP | ≤ 0.25 |
| QYGC | ≤ 0.25 |
| ITGG | ≤ 0.25 |
| LATA | ≤ 0.25 |
| PVCT | ≤ 0.25 |
| MMRA | ≤ 0.25 |
| HQEC | ≤ 0.25 |

| Variant | enrichment ratio |
| --- | --- |
| LSYP | ≤ 0.25 |
| TYQN | ≤ 0.25 |
| EAGV | ≤ 0.25 |
| DWFC | ≤ 0.25 |
| DRGV | ≤ 0.25 |
| LRPW | ≤ 0.25 |
| MLTL | 8.8 |
| HLAP | ≤ 0.25 |
| FSHI | ≤ 0.25 |
| DVVK | ≤ 0.25 |
| RVCA | ≤ 0.25 |
| MTIK | ≤ 0.25 |
| MMDP | ≤ 0.25 |
| VWFL | ≤ 0.25 |
| TSKM | ≤ 0.25 |
| TEWC | 33.2 |
| EQKT | ≤ 0.25 |
| PFPS | ≤ 0.25 |
| VRFL | ≤ 0.25 |
| MIAC | 1.86 |
| ESGP | ≤ 0.25 |
| VWGD | ≤ 0.25 |
| RQVI | ≤ 0.25 |
| MLIE | ≤ 0.25 |
| DCVR | ≤ 0.25 |
| FLMA | ≤ 0.25 |

| Variant | enrichment ratio |
| --- | --- |
| NFPC | ≤ 0.25 |
| NWTY | ≤ 0.25 |
| FCPM | ≤ 0.25 |
| KEEF | ≤ 0.25 |
| PDWQ | ≤ 0.25 |
| MCGP | ≤ 0.25 |
| YRVW | ≤ 0.25 |
| MNVP | ≤ 0.25 |
| DIDH | ≤ 0.25 |
| WIHK | ≤ 0.25 |
| YDNY | ≤ 0.25 |
| KSLF | ≤ 0.25 |
| TLDQ | ≤ 0.25 |
| RFGQ | 0.782 |
| ARSC | ≤ 0.25 |
| TFAH | 1.37 |
| GSKI | ≤ 0.25 |
| WGAD | ≤ 0.25 |
| GKPG | ≤ 0.25 |
| HMSW | ≤ 0.25 |
| IYGE | ≤ 0.25 |
| PIFV | ≤ 0.25 |
| YCKI | ≤ 0.25 |
| NTTR | ≤ 0.25 |
| VEDN | ≤ 0.25 |
| LWGQ | ≤ 0.25 |

| Variant | enrichment ratio |
| --- | --- |
| RLWA | ≤ 0.25 |
| YNSG | ≤ 0.25 |
| RLGG | ≤ 0.25 |
| KGIG | ≤ 0.25 |
| EDRL | ≤ 0.25 |
| NTER | ≤ 0.25 |
| NCGK | ≤ 0.25 |
| FDEK | ≤ 0.25 |
| TVQR | 9.01 |
| DNLK | ≤ 0.25 |
| KMAS | ≤ 0.25 |
| GKIE | ≤ 0.25 |
| NVLH | ≤ 0.25 |
| ESSD | ≤ 0.25 |
| LTWF | 0.951 |
| NKPM | ≤ 0.25 |
| HHEV | ≤ 0.25 |
| FSVT | ≤ 0.25 |
| SYWY | ≤ 0.25 |
| LATQ | ≤ 0.25 |
| PLCY | 0.345 |
| VHDH | ≤ 0.25 |
| ECRY | ≤ 0.25 |
| RYHY | ≤ 0.25 |
| YLVD | ≤ 0.25 |
| DWMC | ≤ 0.25 |

| Variant | enrichment ratio |
| --- | --- |
| ERIP | ≤ 0.25 |
| YMTM | ≤ 0.25 |
| NRYC | ≤ 0.25 |
| VDGL | ≤ 0.25 |
| LQGH | ≤ 0.25 |
| PFRR | 0.315 |
| GIMI | 25.7 |
| KGRF | ≤ 0.25 |
| WEPQ | ≤ 0.25 |
| MAVM | ≤ 0.25 |
| PCRM | ≤ 0.25 |
| QIWC | ≤ 0.25 |
| LYVT | ≤ 0.25 |
| RFIC | ≤ 0.25 |
| ALSG | 9.24 |
| ATNR | ≤ 0.25 |
| NDHY | ≤ 0.25 |
| PIPL | ≤ 0.25 |
| YQSD | ≤ 0.25 |
| VNYQ | ≤ 0.25 |
| YRYQ | ≤ 0.25 |
| GNSH | 1.23 |
| MTQK | ≤ 0.25 |

Reference: a collection of fitness landscapes (doi:10.1126/science.1257360)
